Experimental data taken from PubChem BioAssay (NCI).
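Cells were grown in 96-well plates and exposed to each compound for 48 hours at five concentrations; endpoints were interpolated linearly between bracketing concentrations, or set to the highest concentration if not reached. Abbreviation: GI50, concentration required for 50% inhibition of growth. Definition used: TGI = concentration required for complete inhibition of growth.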

Test system: NCI-H322M lung
Assay: NCI tumour cell line growth inhibition, 48 h

Compound | GI50 [µM] | TGI [µM]
N/C(=N\c1nc2ccccc2s1)NC(=O)Nc1ccc(Cl)cc1Cl | 1.24 | 4.23
O=C(N/C(=C1/OCCN1Cc1ccccc1)[P+](c1ccccc1)(c1ccccc1)c1ccccc1)c1ccccc1 | 8.82 | 21.8
COc1cc(C2CC(c3ccc(C(F)(F)F)cc3)=Nc3c(N)nc(N)nc3N2)ccc1Oc1nc(Nc2ccc(F)cc2)nc(N(C)C)n1 (stereo not drawn) | > 100 | > 100
COc1ccc(NC(=O)Cn2c(/C=C/c3cccc(OC)c3)nc3ccccc3c2=O)cc1 | 5.82 | > 100
